91 compounds from PubChem BioAssay AID360 (National Center for Advancing Translational Sciences (NCATS), 2006) can be followed below.

The structures appear in SMILES notation. The whole screen tested about 48,000 compounds, of which about 550 (1.1%) were called active. Another 4% or so got no clear call; they are omitted. Rule as the data show it: active = potency below about 15 µM; inconclusive = mostly about 16 µM to 33 µM; inactive = weaker than that. The list shows a part of the results.
Potency is read from the fitted curve at half-maximal effect.

Sequence of UniProt P04062 (P04062 whole entry, looked up): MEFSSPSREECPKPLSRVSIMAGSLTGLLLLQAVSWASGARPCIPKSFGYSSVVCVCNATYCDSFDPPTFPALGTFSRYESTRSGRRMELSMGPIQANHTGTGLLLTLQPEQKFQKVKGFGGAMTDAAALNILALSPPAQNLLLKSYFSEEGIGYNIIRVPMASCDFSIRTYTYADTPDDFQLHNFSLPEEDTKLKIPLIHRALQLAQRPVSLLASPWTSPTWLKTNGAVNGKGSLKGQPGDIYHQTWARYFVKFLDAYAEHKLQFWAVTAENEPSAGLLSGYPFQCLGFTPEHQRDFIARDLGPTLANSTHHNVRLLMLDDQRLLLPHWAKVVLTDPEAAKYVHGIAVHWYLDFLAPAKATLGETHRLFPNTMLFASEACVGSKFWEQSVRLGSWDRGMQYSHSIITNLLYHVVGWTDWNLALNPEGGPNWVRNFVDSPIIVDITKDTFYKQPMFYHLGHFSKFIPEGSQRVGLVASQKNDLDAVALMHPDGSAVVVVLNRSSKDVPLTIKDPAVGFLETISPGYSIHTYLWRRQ

The target in the test is Lysosomal acid glucosylceramidase (Homo sapiens) (UniProt P04062). The test can be described thus: Glucocerebrosidase.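 Also: the screen sought inhibitors.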 The note with it: purified enzyme, resorufin glucoside fluorescence (screen aimed at inhibitors), 20 min. An outline of the steps:
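Compounds titrated against 0.2 nM normal enzyme, 30 uM resorufin beta-D-glucopyranoside substrate, citrate/phosphate buffer with taurocholate and tween-20, pH 5.9. Reaction ran 20 min at room temperature; fluorescence (Ex 548/Em 600) gave AC50.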
As for `CC1CCN(CC(=O)NCc2ccccc2)CC1`, the Potency is inactive: > 76.9 µM.
Then `COc1ccccc1OCCn1c(=O)sc2ccccc21`, with inactive: > 76.9 µM; and `COc1ccc(C2=Nn3c(nnc3-c3ccccc3OC)SC2)cc1OC`, with inactive: > 76.9 µM.
Then `CCOC(=O)C1CCCN(S(=O)(=O)Cc2ccccc2)C1` (stereo unspecified), with inactive: > 76.9 µM; and `CCOc1ccc(CN2CCC(C(=O)N3CCN(c4ccccc4F)CC3)CC2)cc1OC`, with inactive: > 76.9 µM; and `CCOC(=O)c1cc(NC(=O)c2cnccn2)cc(C(=O)OCC)c1`, with inactive: > 76.9 µM.
The result for `C=CCc1cccc2cc(C(=O)N3CCN(C(=O)c4ccco4)CC3)c(=O)oc12` reads inactive: > 76.9 µM.
`CCCc1nc2ccccc2c(=O)n1/N=C/c1ccc(O)cc1`: the Potency was inactive: > 76.9 µM.
Then `CC(C)(C)c1ccccc1OCC(=O)NCCC(=O)O`, with inactive: > 76.9 µM; and `O=C(CN1C(=O)c2ccccc2S1(=O)=O)Nc1ccc(S(=O)(=O)N2CCCC2)cc1`, with inactive: > 76.9 µM.
Take `O=C(CCN1C(=O)c2ccccc2S1(=O)=O)NCc1ccco1`: the Potency is inactive: > 76.9 µM.
Then `Cc1oc(-c2cc(Cl)ccc2Cl)cc1-c1nn2c(C)nnc2s1`, with inactive: > 76.9 µM.
Then `CCC(=O)N(CCO)Cc1cc2ccc(C)c(C)c2[nH]c1=O`, with inactive: > 76.9 µM; and `NC(CC(=O)O)c1cccc(OCc2ccccc2)c1` (stereo unspecified), with inactive: > 76.9 µM.
Then `CC1CCCC(NC(=O)CC2Nc3ccccc3NC2=O)C1C` (stereo unspecified), with inactive: > 76.9 µM; and `O=S(=O)(c1ccc(Oc2ncnc3scc(-c4ccccc4)c23)cc1)N1CCOCC1`, with inactive: > 76.9 µM; and `O=C(CN1C(=O)c2ccccc2S1(=O)=O)NCCSc1ccccc1`, with inactive: > 76.9 µM.
Take `CCn1c(C)nc2c(=O)oc3ccccc3c21`: the Potency is inactive: > 76.9 µM.
Then `CCC(c1nnnn1Cc1ccccc1)N(Cc1ccco1)Cc1cc2cc(OC)ccc2[nH]c1=O` (stereo unspecified), with inactive: > 76.9 µM.
With `CCC(C)N(C(=O)Cn1nnc2ccccc21)C(C(=O)NCc1ccco1)c1cccc(OC)c1` (stereo unspecified), the Potency result was “inactive”.
Then `CCOC(=O)CN(C(=O)Cn1nnc2ccccc21)C(C(=O)NCCOC)c1ccccc1` (stereo unspecified), with inactive: > 76.9 µM; and `Cc1ccc(NC(=O)C2CCCN2C(=O)Oc2ccccc2)cc1` (stereo unspecified), with inactive: > 76.9 µM; and `COc1c2c(nc3occc13)C(CCC(C)(C)O)(OC)C(O)CC2` (stereo unspecified), with inactive: > 76.9 µM.
The result for `CCOC(=O)CNC(=O)CSc1ncnc2c1cnn2-c1ccc(Cl)cc1` reads inactive: > 76.9 µM; that for `CC(C)N1C(=O)CN(C2CCCCCC2)C(=O)C1c1ccccc1F` (stereo unspecified), inactive: > 76.9 µM; that for `C=CCOC(=O)C1=C(C)N=C2SCCC(=O)N2C1c1cccs1` (stereo unspecified), inactive: > 76.9 µM.
Then `CCOC(=O)CSc1nc2ccccc2c(=O)n1C1CCCC1`, with inactive: > 76.9 µM; and `CC1=C(C#N)C(c2cn(-c3ccccc3)nc2-c2cccs2)C(C#N)=C(C)N1`, with “inactive”; and `CCOC(=O)C1C(=O)OC2(CCCC2)C1C(=O)OCC` (stereo unspecified), with inactive: > 76.9 µM.
Regarding `CNC(=O)CC(C(=O)O)c1ccc(OCC(C)C)cc1` (stereo unspecified), the Potency is inactive: > 76.9 µM.
Then `Clc1ccc(C2=Nn3c(nnc3-c3cccnc3)SC2)s1`, with inactive: > 76.9 µM; and `CC(O)[C@H](NC(=O)C1(c2ccccc2)CCN(C(=O)OC(C)(C)C)CC1)C(=O)O` (stereo partly specified), with inactive: > 76.9 µM.
Consider `O=c1[nH]c(-c2ccncc2)nc2ccccc12`, for which the Potency is inactive: > 76.9 µM.
The result for `COc1ccccc1N1C(=O)C2CC(C)=C(C)CC2C1=O` (stereo unspecified) reads inactive: > 76.9 µM.
The result for `O=C(NCCCN1CCOCC1)c1cc2c(=O)[nH]c3ccccc3c2s1` reads inactive: > 76.9 µM.
The result for `COc1ccc(-c2noc(CCC(=O)NCCCN3CCC(C)CC3)n2)cc1` reads inactive: > 76.9 µM; that for `O=c1[nH]c2cc3c(cc2cc1CN(Cc1cccs1)Cc1nnnn1Cc1ccco1)OCCO3`, inactive: > 76.9 µM.
Take `Cc1nn2c(=O)nc3sc4c(c3c2[nH]c1=O)CCCC4`: the Potency was inactive: > 76.9 µM.
Then `Cn1c(C(=O)Nc2ccc3c(c2)OCCO3)cc2sccc21`, with inactive: > 76.9 µM; and `O=c1cc(CN2CCN(CCO)CC2)c2cc3c(cc2o1)CCC3`, with “inactive”.
Take `CC(C)(C)OC(=O)NCCCCCc1nnc(SCC(N)=O)o1`: the Potency is inactive: > 76.9 µM.
Then `COc1cc(NC(=O)c2ccc(Br)o2)c(C(=O)O)cc1OC`, with inactive: > 76.9 µM.
The result for `Cc1c(C(=O)OC(C)C)[nH]c2c1C(=O)CC(C)(C)C2` reads inactive: > 76.9 µM.
The result for `CCN1CCCC1CN(Cc1cc2ccc(C)c(C)c2[nH]c1=O)C(=O)Nc1ccccc1OC` (stereo unspecified) reads inactive: > 76.9 µM.
Turning to `CCOc1ccc(C(=O)Nc2ccc(S(=O)(=O)N3CCOCC3)cc2)cc1OCC`, the Potency was inactive: > 76.9 µM.
Turning to `Cc1nnc(SCC(=O)Nc2cccc(C(F)(F)F)c2)[nH]c1=O`, the Potency is inactive: > 76.9 µM.
Then `CCC1Sc2ccccc2N(CC(=O)NCCC(C)C)C1=O` (stereo unspecified), with inactive: > 76.9 µM; and `CN(CC(=O)NC1CCCCC1)S(=O)(=O)c1cccc2nsnc12`, with inactive: > 76.9 µM.
For the compound `CCCCNC(=O)Cn1cnc2sc(C(=O)OCC)c(C)c2c1=O`, the Potency was inactive: > 76.9 µM.
The result for `CCC1S/C(=C(\C#N)C(N)=O)N(c2ccc(F)cc2)C1=O` (stereo unspecified) reads inactive: > 76.9 µM.
The result for `O=S(=O)(c1ccc2c(c1)OCCO2)N(Cc1ccc(F)cc1)Cc1nnc(-c2cccs2)o1` reads inactive: > 76.9 µM.
The result for `CC1CCCCN1S(=O)(=O)c1ccc(NC(=O)CSc2nnnn2C)cc1` (stereo unspecified) reads inactive: > 76.9 µM.
Regarding `O=C(O)c1ccc(S(=O)(=O)NC2CCCCC2)cc1`, the Potency is inactive: > 76.9 µM.
The result for `O=C(Nc1ccccc1)N(Cc1cccs1)C1CCCC1` reads inactive: > 76.9 µM; that for `O=c1oc2ccccc2c(O)c1CN1CCCCC1`, inactive: > 76.9 µM.
In the case of `O=C(c1ccco1)N1CCN(C(c2ccc(Cl)cc2)c2nnnn2CC2CCCO2)CC1` (stereo unspecified), the Potency was inactive: > 76.9 µM.
The result for `Cc1ccc(-c2nsc3c(N4CCC(C(N)=O)CC4)ncnc23)cc1` reads inactive: > 76.9 µM.
For `CC(=O)Nc1cc(C(=O)c2ccccc2)ccc1N1CCOCC1`, the Potency was inactive: > 76.9 µM.
As for `O=C(Nc1ncc2c(n1)CC(c1ccco1)CC2=O)c1ccc(Cl)cc1` (stereo unspecified), the Potency was inactive: > 76.9 µM.
The result for `CCOC(=O)c1sc(NC(=O)c2cccs2)cc1C` reads inactive: > 76.9 µM; that for `CCOC(=O)c1[nH]nc2c1C(=O)N(CC)C2=O`, inactive: > 76.9 µM.
`Cc1ccc2c(C(=O)CN3CCCCC3CCO)c(C)[nH]c2c1` (stereo unspecified): the Potency is inactive: > 76.9 µM.
Consider `COc1cc(NC(=O)Cc2cccs2)cc(OC)c1`, for which the Potency is inactive: > 76.9 µM.
With `CCCCn1c(=O)n(Cc2cccc(F)c2)c(=O)c2c1ncn2Cc1ccco1`, the Potency was inactive: > 76.9 µM.
Then `Cc1ccc(-n2c(SCC(=O)N3CCOCC3)nnc2-c2cccnc2)cc1C`, with inactive: > 76.9 µM; and `Cc1ccc(-c2cc(C(=O)Nc3cnn(C45CC6CC(CC(C6)C4)C5)c3)no2)cc1`, with inactive: > 76.9 µM.
The result for `COC(=O)CC1C(=O)NCCN1C(=O)NC1CCCCC1` (stereo unspecified) reads inactive: > 76.9 µM; that for `CCOC(=O)c1cccc(NC(=O)CSc2nnc(C3CCCCC3)n2C)c1`, inactive: > 76.9 µM.
Then `CCN(CC)C(=O)CSc1nc2ccccc2c(=O)n1OC`, with inactive: > 76.9 µM; and `COc1ccc(NS(=O)(=O)c2cc(OC)ccc2NC(=O)c2cc(C)oc2C)cc1`, with inactive: > 76.9 µM; and `c1cc(C2CCCCC2)ccc1Oc1nc(N2CCOCC2)nc(N2CCOCC2)n1`, with inactive: > 76.9 µM.
For the compound `CC(C)C(=O)Nc1ccc(NC(=O)c2ccccn2)cn1`, the Potency was inactive: > 76.9 µM.
The result for `C=CCn1c(SCCCCCC)nc(O)cc1=O` reads inactive: > 76.9 µM; that for `COc1cc2nc(C3CCC3)n(NC(=O)C(OC(C)=O)c3ccccc3)c(=O)c2cc1OC` (stereo unspecified), inactive: > 76.9 µM.
On to `Cc1nc(S(=O)(=O)NC2CCCCC2)c(C#N)c(C)c1Cl`, for which the Potency is inactive: > 76.9 µM.
As to `CC(C)CCOc1ccc(C(=O)CCNC(C)C(=O)O)cc1` (stereo unspecified), the Potency result was “inactive”.
The result for `COc1ccc(S(=O)(=O)N(Cc2ccccc2)Cc2nc3ccccc3c(=O)[nH]2)cc1` reads inactive: > 76.9 µM; that for `O=C(NCC(F)(F)F)Nc1cccnc1`, inactive: > 76.9 µM.
As for `COc1ccc(S(=O)(=O)N(C)CC(=O)NC2CCCC2)cc1Cl`, the Potency is inactive: > 76.9 µM.
Then `CS(=O)(=O)c1ncc(Cl)c(C(=O)Nc2ccc(N3CCOCC3)cc2)n1`, with inactive: > 76.9 µM; and `CCCCOc1ccc(-c2ncc(C(=O)O)c(C)n2)cc1`, with inactive: > 76.9 µM; and `Cc1cc(C)n(-c2nc3c(c(=O)n(C)c(=O)n3C)n2C)n1`, with inactive: > 76.9 µM.
Consider `COc1ccccc1-n1cnc2cc(NS(=O)(=O)c3ccccc3)ccc21`, for which the Potency is inactive: > 76.9 µM.
The result for `CCOC(=O)N1CCN(S(=O)(=O)c2cc(Cl)c(OC)cc2Cl)CC1` reads inactive: > 76.9 µM; that for `COc1ccc(OC)c(NC(=O)CCN2CCN(c3ccccc3)CC2)c1`, inactive: > 76.9 µM; that for `CCSc1nnc(-c2ccccc2NC(C)=O)c(=O)[nH]1`, inactive: > 76.9 µM.
Then `O=C(COC(=O)C1=COCCO1)Nc1ccc2c(c1)OCO2`, with inactive: > 76.9 µM.
Then `O=C(C1CCCN(Cc2ccncc2)C1)N1CCc2ccccc2C1` (stereo unspecified), with inactive: > 76.9 µM.
Regarding `Cc1nc(NC2=NCN(CCc3ccccc3)CN2)nc2c(C)cccc12`, the Potency was inactive: > 76.9 µM.
Then `CCN(CC)C(=O)Oc1ccc2c(=O)c(-c3ccc(OC)cc3)coc2c1`, with inactive: > 76.9 µM.
The result for `CCOc1ccc(OCc2cccc(C(=O)N3CCCC3)c2)cc1` reads inactive: > 76.9 µM.
